{"source": "paper PMC4336329", "about": "(PLoS ONE, 2015)", "note": "About 14,000 (4.5%) of roughly 310,000 compounds showed an effect of 50% or more. The effect is printed as a negative number. The list shows a part of the results.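 Further: peak tail current of the secondary pulse compared with the same well before compound.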"}
{"target": "human ether-à-go-go-related gene (hERG) potassium channel (human, UniProt Q12809)", "sequence (Q12809 whole entry, looked up)": "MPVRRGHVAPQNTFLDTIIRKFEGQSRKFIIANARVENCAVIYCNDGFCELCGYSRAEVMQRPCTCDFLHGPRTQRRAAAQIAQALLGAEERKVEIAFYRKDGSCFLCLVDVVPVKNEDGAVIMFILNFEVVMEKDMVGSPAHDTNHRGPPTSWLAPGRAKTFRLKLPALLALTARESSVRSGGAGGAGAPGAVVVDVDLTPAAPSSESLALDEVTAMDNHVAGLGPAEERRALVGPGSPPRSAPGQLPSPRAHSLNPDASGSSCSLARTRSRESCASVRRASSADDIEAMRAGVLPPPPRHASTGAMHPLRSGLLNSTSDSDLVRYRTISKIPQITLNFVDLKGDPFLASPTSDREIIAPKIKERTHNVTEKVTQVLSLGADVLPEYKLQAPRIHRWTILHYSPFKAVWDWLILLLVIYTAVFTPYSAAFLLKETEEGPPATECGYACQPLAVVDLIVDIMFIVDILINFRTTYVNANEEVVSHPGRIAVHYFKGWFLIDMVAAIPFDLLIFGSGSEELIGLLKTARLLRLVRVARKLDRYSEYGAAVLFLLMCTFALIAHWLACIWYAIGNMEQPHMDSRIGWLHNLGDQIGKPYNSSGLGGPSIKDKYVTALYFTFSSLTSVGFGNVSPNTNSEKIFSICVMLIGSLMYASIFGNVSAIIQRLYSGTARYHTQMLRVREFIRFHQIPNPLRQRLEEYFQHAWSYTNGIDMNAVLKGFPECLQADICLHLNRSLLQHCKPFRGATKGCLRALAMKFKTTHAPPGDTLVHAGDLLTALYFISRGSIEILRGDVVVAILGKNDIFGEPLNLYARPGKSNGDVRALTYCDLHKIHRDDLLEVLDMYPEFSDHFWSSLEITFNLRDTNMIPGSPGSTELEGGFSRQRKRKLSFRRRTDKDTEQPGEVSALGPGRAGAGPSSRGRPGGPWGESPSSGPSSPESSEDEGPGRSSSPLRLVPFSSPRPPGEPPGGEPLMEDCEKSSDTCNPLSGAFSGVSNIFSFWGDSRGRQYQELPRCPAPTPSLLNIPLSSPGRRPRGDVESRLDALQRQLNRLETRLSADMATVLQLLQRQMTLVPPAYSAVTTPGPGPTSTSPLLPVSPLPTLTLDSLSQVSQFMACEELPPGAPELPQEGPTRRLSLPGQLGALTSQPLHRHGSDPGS", "experiment": "primary screen, population patch clamp on CHO cells stably expressing hERG", "units": {"hERG current change (%, negative = inhibition) at 10uM": "%"}}
{"smiles": "O=C(Oc1cccnc1)c1ccc([N+](=O)[O-])cc1", "hERG current change (%, negative = inhibition) at 10uM": -10.6}
{"smiles": "COc1cccc(N2CC(C(=O)Nc3nnc(SCC(=O)NCC4CCCO4)s3)CC2=O)c1", "note": "(centres unmarked)", "hERG current change (%, negative = inhibition) at 10uM": 17.5}
{"smiles": "CC(C)(C)c1ccc(-c2nc(C#N)c(NCCCn3ccnc3)o2)cc1", "hERG current change (%, negative = inhibition) at 10uM": -0.856}
{"smiles": "CCN1CCN(C(=O)CN(c2ccc(F)c(Cl)c2)S(C)(=O)=O)CC1", "hERG current change (%, negative = inhibition) at 10uM": 24.5}
{"smiles": "Cc1csc(N2CCCC2c2nc3cc(Cl)c(N4CCCCC4)cc3n2CCCO)n1", "note": "(centres unmarked)", "hERG current change (%, negative = inhibition) at 10uM": -39.2}
{"smiles": "CC(=O)c1c(C)nn(-c2ccccc2)c1C", "hERG current change (%, negative = inhibition) at 10uM": 15.1}
{"smiles": "Br.N=C(N)SCc1nc2ccccn2c1Br", "hERG current change (%, negative = inhibition) at 10uM": -11.2}
{"smiles": "Cc1ccc2cc(C#N)c(N3CCN(C)CC3)nc2c1", "hERG current change (%, negative = inhibition) at 10uM": 2.75}
{"smiles": "CCCCCNCc1ccc(Br)cc1.Cl", "hERG current change (%, negative = inhibition) at 10uM": -33.3}
{"smiles": "S=c1[nH]c(-c2ccccc2)cn1/N=C/c1cccnc1", "hERG current change (%, negative = inhibition) at 10uM": 12.8}
{"smiles": "Cc1cc(C(=O)NC(C)C2CC2)c(Cl)cc1Cl", "note": "(centres unmarked)", "hERG current change (%, negative = inhibition) at 10uM": 18.3}
{"smiles": "CCc1cc(=O)[nH]c(SCC(=O)Nc2cc(C)on2)n1", "hERG current change (%, negative = inhibition) at 10uM": -4.55}
{"smiles": "COc1cc(C)c(S(=O)(=O)n2c([N+](=O)[O-])cnc2C)cc1C", "hERG current change (%, negative = inhibition) at 10uM": 2.74}
{"smiles": "COc1cc2c(cc1OC)C(C1C(=O)CCCC1=O)N(C(=O)CCl)CC2", "note": "(centres unmarked)", "hERG current change (%, negative = inhibition) at 10uM": 14.1}
{"smiles": "CC(=O)Nc1ccc(N2Cc3ccccc3C2)cc1", "hERG current change (%, negative = inhibition) at 10uM": 6.18}
{"smiles": "N#C/C(C(=S)Nc1ccccc1)=C1/NN=C(N2CCOCC2)N1c1ccccc1", "hERG current change (%, negative = inhibition) at 10uM": 25.6}
{"smiles": "Cl.OC(CC#CCN1CCCCCC1)(c1ccccc1)C1CCCC1", "note": "(centres unmarked)", "hERG current change (%, negative = inhibition) at 10uM": -17.7}
{"smiles": "CC(C)(C)c1ccc(OCCC(=O)Nc2ccc(N3CCOCC3)cc2N2CCOCC2)cc1", "hERG current change (%, negative = inhibition) at 10uM": -45.7}
{"smiles": "O=C(c1ccc(-c2nnc(-c3ccccc3)o2)cc1)N1CCCCCC1", "hERG current change (%, negative = inhibition) at 10uM": 12.5}
{"smiles": "CCOc1ccc(CN(C)CC(=O)Nc2cccc3ccccc23)cc1OC.O=C(O)C(=O)O", "hERG current change (%, negative = inhibition) at 10uM": -16.5}
{"smiles": "CCn1nc(C)c(NC(=O)/C=C/c2cnn(C)c2)c1C", "hERG current change (%, negative = inhibition) at 10uM": -9.47}
{"smiles": "C=CCn1c(CSc2nc3ccccc3s2)nnc1SCC(=O)OCC", "hERG current change (%, negative = inhibition) at 10uM": -33.5}
{"smiles": "COc1cccc(C(=O)C2CCCN(Cc3ccon3)C2)c1", "note": "(centres unmarked)", "hERG current change (%, negative = inhibition) at 10uM": 8.72}
{"smiles": "Cc1cccc(COc2ccccc2C(=O)NC2CCC(O)CC2)c1", "note": "(centres unmarked)", "hERG current change (%, negative = inhibition) at 10uM": -11.6}
{"smiles": "CCOc1ccc(CCNC(=O)c2ccc3nc(N4CCOCC4)sc3c2)cc1OCC", "hERG current change (%, negative = inhibition) at 10uM": -3.01}
{"smiles": "Cc1oc(/N=C/c2cccc([N+](=O)[O-])c2)c(C#N)c1C", "hERG current change (%, negative = inhibition) at 10uM": 16.8}
{"smiles": "COc1ccc(N(CC(=O)NC2CCCCC2)C(=O)CCCC(=O)Nc2ccccn2)c(OC)c1", "hERG current change (%, negative = inhibition) at 10uM": -12}
{"smiles": "CC(=O)N/C(=C/c1ccccc1)C(=O)N1CCCCC1", "hERG current change (%, negative = inhibition) at 10uM": 10.3}
{"smiles": "CN(C)CCCNC(=S)N1CCn2c(nc3ccccc32)C1", "hERG current change (%, negative = inhibition) at 10uM": 4.63}
{"smiles": "O=C(c1cccc([N+](=O)[O-])c1)N(c1ccccn1)c1ccccn1", "hERG current change (%, negative = inhibition) at 10uM": 6.79}
{"smiles": "Cc1cc(NC2CCCCC2)n2c(n1)nc1ccccc12", "hERG current change (%, negative = inhibition) at 10uM": -55.1}
{"smiles": "CC1CN(C2CCN(C(=O)c3cccc(Cl)c3)CC2)CC(C)O1", "note": "(centres unmarked)", "hERG current change (%, negative = inhibition) at 10uM": 6.5}
{"smiles": "O=C(NCc1nnc(SCC(=O)N2CCOCC2)o1)c1ccccc1F", "hERG current change (%, negative = inhibition) at 10uM": 24.2}
{"smiles": "CN(/C=C/C(=O)C(F)(F)C(F)(F)F)Cc1ccccc1", "hERG current change (%, negative = inhibition) at 10uM": -7.46}
{"smiles": "O=C(CCCn1c(SCC(=O)NCCc2ccccc2)nc2ccccc2c1=O)NCC1CCCO1", "note": "(centres unmarked)", "hERG current change (%, negative = inhibition) at 10uM": -22.8}
{"smiles": "Cc1ccc(NCC(=O)Nc2cccc(S(=O)(=O)N(C)C)c2)cc1S(=O)(=O)N1CCCCCC1", "hERG current change (%, negative = inhibition) at 10uM": -10.3}
{"smiles": "CCOC(=O)c1nnn(-c2nc(OC)nc(N(C)C)n2)c1-c1ccccc1", "hERG current change (%, negative = inhibition) at 10uM": -0.201}
{"smiles": "O=C(C[n+]1cc(-c2ccc(F)cc2)n2c1CCC2)N1c2ccccc2Sc2ccccc21.[Cl-]", "hERG current change (%, negative = inhibition) at 10uM": 6.17}
{"smiles": "CCOC(=O)c1c(NC(=O)COC(=O)c2ccncc2)sc(C)c1C", "hERG current change (%, negative = inhibition) at 10uM": 11.1}
{"smiles": "COc1ccc2[nH]cc(CCNC(C)=O)c2c1", "hERG current change (%, negative = inhibition) at 10uM": 2.25}
{"smiles": "N#Cc1ccccc1Sc1ccccc1C(=O)OCC(=O)N1CCN(C(=O)c2ccco2)CC1", "hERG current change (%, negative = inhibition) at 10uM": -36.3}
{"smiles": "Cc1cccc(OCC(=O)Nc2cc(S(=O)(=O)N3CCCCC3)ccc2N2CCN(C)CC2)c1", "hERG current change (%, negative = inhibition) at 10uM": -63}
{"smiles": "CCCCCCn1c(=O)c(C(=O)Nc2ncccc2O)c(O)c2ccccc21", "hERG current change (%, negative = inhibition) at 10uM": 9.65}
{"smiles": "Cc1cc(C)cc(N2C(=O)CN(Cc3ccccc3)C2=S)c1", "hERG current change (%, negative = inhibition) at 10uM": -2.18}
